Measured values reported in PubChem BioAssay AID686978 (National Center for Advancing Translational Sciences (NCATS), 2013).
“And” between values parts separate entries of the source, which are not always exact repeats. Equal values may be shown once. Out of some 420,000 compounds screened, about 64,000 (15%) were called active. Inconclusive results, whose numbers are uncertain, are shown with a selection of clear calls. Calls follow the shape of the dose curve; as a rule, active = well fitted inhibition curve with a large enough effect; inconclusive = small, poorly fitted or top-dose-only effect; inactive = flat fitted curve, though single readings scatter. No potency is given beside an inconclusive call; the fits are too rough. Where a structure was tested more than once in an assay, its records may differ in their call.

test: qHTS for Inhibitors of human tyrosyl-DNA phosphodiesterase 1 (TDP1): qHTS in cells in absence of CPT; conditions: DT40 Tdp1-/- hTDP1 cells, no CPT, ATP luminescence, 48 h; activity change, negative = growth inhibition: at 46.2 µM (top of the series); also: nearly all actives have a fitted effect of over 55% in size
Method in brief: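 Compound effects on proliferation are scored in DT40 Tdp1-/-;hTDP1 cells in the absence of CPT. ATP levels (CellTiter-Glo luminescence) are recorded after a ≥48 hr, 37 °C incubation.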
% is scaled to controls: 0 for no effect and ±100 for the full control effect; potency is read from the fitted curve at half-maximal effect; tags tell the direction and shape of the fitted curve.

Row | Structure (SMILES) | Potency | activity change, negative = growth inhibition
1 | COc1cc(OC)c(NC(=O)Nc2sc3nc4n(c(=O)c3c2C)CCC(C)CC4)cc1Cl (stereo unspecified) | active: 5.8 µM | 
2 | Cc1nc2sc(C(=O)c3ccccc3)c(N)c2c2c1CCCC2 | active: 20.6 µM | 
3 | Cc1ccc(CCNC(=O)c2ccc(Cn3c(=O)c4cccn4c4cccnc43)cc2)cc1 | inconclusive [inhibitor, single point] | 
4 | CC1(OC(=O)CCc2ccccc2)C(=O)C=C2C=C(c3ccc(C#N)cc3)N(CC3CC3)C=C2C1=O (stereo unspecified) | inconclusive [inhibitor, partial curve] | 
5 | CNS(=O)(=O)c1cccc(C(=O)OCC(=O)N2c3ccccc3NC(=O)C2(C)C)c1 | inactive | 
6 | O=S(=O)(Nc1ccc(-c2ccc(N3CCCC3)nn2)cc1)c1ccccc1Cl | inactive | 
7 | CCCC(c1nnnn1CC1CCCO1)N1CCN(c2nc3ccccc3s2)CC1 (stereo unspecified) | inconclusive [inhibitor, single point] | 
8 | COc1cc(-c2csc(N3CCOCC3)n2)cc(OC)c1OC | inconclusive [inhibitor, single point] | 
9 | Cn1nc(CC#N)c2c(=N)n(N)cnc21 | inactive | 
10 | CN(Cc1ccccc1)C(=O)C1CCCN(Cc2cccc(Cl)c2)C1 (stereo unspecified) | inactive and active: 23.1 µM | 
11 | COc1cc(OC)cc(-n2c3nc4ccccc4nc3c3c(=O)n(CC4CCCO4)cnc32)c1 (stereo unspecified) | inconclusive [inhibitor, single point] | 
12 | COc1cc2[nH]c(O)c(C=O)c2cc1OC | inactive | 
13 | O=C(O)c1cccc(NC(=O)c2cccc(S(=O)(=O)Nc3cccc(F)c3)c2)c1 | inactive | 
14 | O=C(/C=C/c1ccccn1)c1cc(Cl)cc(Cl)c1O | inconclusive [inhibitor, single point] | 
15 | CC1CCc2cc(F)ccc2N1C(=O)CSc1nnc2c3ccccc3n(C)c2n1 (stereo unspecified) | active: 20.6 µM | 
16 | CC(Oc1ccc2c(-c3ccccc3)cc(=O)oc2c1)C(=O)NCCN1CCOCC1 (stereo unspecified) | inconclusive [inhibitor, partial curve] | 
17 | O=C(C1CCN(S(=O)(=O)c2cccs2)CC1)N1CCc2ccccc2C1 | inactive | 
18 | O=C(NCc1ccccc1)c1cccc(COc2ccc(Cl)cc2)c1 | inconclusive [inhibitor, single point] | 
19 | CCOC(=O)c1cccc(NC(=O)C2CCCO2)c1 (stereo unspecified) | inactive | 
20 | Oc1ccc(/C=N/Nc2ccccc2)cc1 | inconclusive [inhibitor, partial curve] | 
21 | C=CCn1c(CSCc2ccc(Cl)cc2)nnc1SCC(=O)NCc1ccccc1 | inconclusive [inhibitor, partial curve] | 
22 | CCOc1ccc2nc(NCCNC(=O)C(C)C)c(C)cc2c1 | inconclusive [inhibitor, single point] | 
23 | COc1ccc(Oc2cn[nH]c2-c2ccc(OC)cc2O)cc1 | inconclusive [inhibitor, single point] | 

Row | Structure (SMILES) | Potency | activity change, negative = growth inhibition
24 | Cn1cccc1C(=O)N1CCC[C@@]2(CCN(c3ccccn3)C2)C1 | inconclusive [inhibitor, full curve] | 
25 | CC1CCN(C(=O)Oc2ccccc2)CC1 | inactive | 
26 | CC/C=C\C/C=C\C/C=C\C/C=C\C/C=C\CCCC(=O)O | inconclusive [inhibitor, single point] | 
27 | CC(OC(=O)c1cc2c(ccc3ccccc32)oc1=O)c1nc2ccccc2s1 (stereo unspecified) | inconclusive [inhibitor, single point] | 
28 | Cc1ccc2nc(N3CC(=O)Nc4ccccc43)nc(-c3ccccc3)c2c1 | inconclusive [inhibitor, single point] | 
29 | O=C1c2ccccc2C(=O)c2c1ccc(C(=O)N1CCCCC1)c2NCCO | inconclusive [inhibitor, single point] | 
30 | COc1ccc(CNCC(O)(c2ccccc2)c2ccccc2)cc1OC | active: 13 µM | 
31 | C/C(=N\Nc1nc(-c2ccccc2O)nc2ccccc12)c1ccccc1 | active: 7.31 µM | 
32 | COCCCN(C(=S)Nc1ccc(OC)cc1)C(C)c1ccncc1 (stereo unspecified) | inactive | 
33 | CN(/N=C/c1ccccc1O)C(=S)c1ccccc1 | inconclusive [inhibitor, single point] | 
34 | COc1cccc(C(=O)Nc2ccccc2SCc2cc(=O)c3cccc(C)c3[nH]2)c1 | inconclusive [inhibitor, single point] | 
35 | COc1ccc([N+](=O)[O-])c(OC)c1C(=O)NC(=O)Nc1c(F)c(F)c(F)c(F)c1F |  | inconclusive: -30.5% [inhibitor]
36 | Cc1ccc(S(=O)(=O)Nc2ccc3c(c2)C(=O)N([C@H](C)CO)C[C@H](C)[C@H](CN(C)C(=O)Nc2cccc4ccccc24)OCCCC[C@@H](C)O3)cc1 | active: 14.6 µM | 
37 | CCCCNC(=O)C1(C)CCN1C(=O)c1ccc2c(c1)C(C)(C)CCC2(C)C (stereo unspecified) | active: 13 µM | 
38 | CC1CCN(C(=O)C2CCN(S(=O)(=O)c3ccc(-n4cnnn4)cc3)CC2)CC1 | inconclusive [inhibitor, single point] | 
39 | CCOC(=O)C1CCN(c2nc3c(C)cccn3c(=O)c2/C=C(\C#N)S(=O)(=O)c2ccccc2)CC1 | inconclusive [inhibitor, single point] | 
40 | CNc1ccccc1C(C)(C)c1cc(-c2cccc(OC)c2)no1 | active: 5.17 µM | 
41 | CCCc1nc(C(C)(C)O)c(C(=O)OCc2oc(=O)oc2C)n1Cc1ccc(-c2ccccc2-c2nn[nH]n2)cc1 | inconclusive [inhibitor, partial curve, poor fit] | 
42 | Cc1ccc(-c2ccc(SCC(=O)Nc3ccc4c(c3)OCCO4)nn2)cc1 | inconclusive [inhibitor, single point] | 
43 | CCC1(NC(C)=O)CC2CC1CC2NC(C)=O (stereo unspecified) | inactive | 
44 | N#Cc1c[nH]n2c(NC3CCCC3)c(-c3ccc(Br)cc3)nc12 | active: 23.1 µM | 
45 | COc1cc(NC(=O)c2ccc(S(=O)(=O)N(C)c3ccccc3)cc2)cc(OC)c1 | active: 16.4 µM | 
46 | COc1ccccc1NC(=O)CCC(=O)OCc1ccc(Cl)cc1 | inactive | 
